Measured values from the supplement of paper PMC10681739.
± gives the standard deviation of the averaged measurements. Whole data set: some 4,100 sequences, median “arbitrary fluorescence units” near 780, cut for the highest 2% near 22,000. The list shows a part of the results.

molecular target: T1, ETS1 (UniProt P14921); experiment: ETS1 binding intensity (PBM fluorescence), ETS1 alone (arbitrary fluorescence units); higher = stronger binding; details: ETS1 concentration 1 nM; RUNX1 concentration 0 nM
T1 sequence: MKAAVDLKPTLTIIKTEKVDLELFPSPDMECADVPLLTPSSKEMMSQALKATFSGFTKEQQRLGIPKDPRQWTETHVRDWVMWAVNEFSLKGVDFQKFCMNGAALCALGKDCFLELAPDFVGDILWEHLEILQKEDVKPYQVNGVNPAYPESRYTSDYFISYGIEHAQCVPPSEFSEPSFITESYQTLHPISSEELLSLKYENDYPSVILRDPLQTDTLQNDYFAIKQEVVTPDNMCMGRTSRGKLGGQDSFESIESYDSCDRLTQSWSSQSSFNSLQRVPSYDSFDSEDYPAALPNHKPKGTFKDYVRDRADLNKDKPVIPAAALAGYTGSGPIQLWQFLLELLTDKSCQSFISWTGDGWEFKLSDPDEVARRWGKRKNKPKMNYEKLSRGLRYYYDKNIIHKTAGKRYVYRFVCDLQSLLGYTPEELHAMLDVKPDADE
How it was run: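 Double-stranded Agilent 4 × 180k arrays held 36-bp genomic probes whose RUNX1 partner site was mutated, and these were incubated with 1 nM full-length recombinant human ETS1 in the absence of RUNX1 under standard PBM protocols. Bound protein was labelled with anti-ETS1 antibody (Cell Signaling Technology 14069) plus an Alexa488-conjugated secondary and read on a GenePix 4400A, with four spots printed per sequence. Binding level is reported as raw spot fluorescence intensity summarised over replicate spots.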

Row | Sequence | ETS1 binding intensity
1 | CTGCTAGCGGAAGCAGCCAAGCCTACAGGCTCCAGG | 1940
2 | CGGCACCACTTCCGAGTGGAGCACGCGTTGGCCGAG | 3360
3 | ACTATTTTTAGACTTCCCCACCCCGCTGTTTCAAGG | 632
4 | TGAGATTAGTGGATAAGTTGGTGCCGGATGTCATCC | 716
5 | GGCACACTGCAGTCGCACCATAAGCTTCCTGGATGG | 448
6 | CTCGTGGCAACATCTGGCGGTGCCCCGGCATCCGGT | 1630
7 | TAGCACCCAAAAGCACCTACTGGCTTCCGGCACCTC | 1380
8 | TGGGGAGGCAGGAAACGGGCCTTGTAGTTGGGGGGT | 3950
9 | CTTGGCTGGGGTTCTCTGGTAGGAAGTGAGAGAGGT | 466
10 | CAGTGGCTTCCTCCCCACCTCCTACCCCATTCAATG | 2000
11 | GTGGAAGTCACAGGGAGTGGGCAGGATGTAGCAGAA | 1150
12 | GTAGTAAGTTGTAGTTAAAAGAGAGGAAGTTCAGAG | 550
13 | AGTGGGTGCTTTTCAGCCCTTATCTTCCTGGACCAT | 353
14 | CCGAGTGGCAGTTGTTTCAAGATGGCGGACGTGGCA | 389 ± 29
15 | TTGGATGTGACTTGCCAAAAAAAAGCATATCCTTGG | 357
16 | AGGTTAAGTGAGGTTTCTCTTCCTGTTTCCACCCTG | 1580
17 | ATGTCAGGAAGAGGCTCAGGGCTGTAGTTTCTCTGT | 519
18 | TTCTTCACTTCCTTCTCTCCGTGCTTTCGCCATTAG | 2950
19 | GGGTTTTCCGCGCGCCAGCTGAGGTGCTTGCTGGGA | 631
20 | GGTGTTGTCAAAACAAACCTCCCACATCCCGTACGT | 506
21 | CAGCTGCAGGCCTGGGTGTACGGAGCCCGGAACAGG | 567
22 | TTGGCTTGGGGCTGGACTACATTTCCCAGCATCCCT | 425
23 | AACTGAACCTCCACCACTTAACCTCTAAGGAAGCGG | 405
24 | GAGCCTGTTGCTTCCGGTTCAGAGCCCACGTGCTGG | 22200
25 | CGGGCCCCAAAATGGTGGAGGGGCAGCTTCCGGCAG | 1280
26 | CCAAGCACTTCCTGCTGTTAGCTTTTTGGGCTGAGT | 10100
27 | GATTGCCGTTGGGACTTTCCCTAAGTCATTTCCTGT | 2220

Row | Sequence | ETS1 binding intensity
28 | CTAGCCTGTGATTTTTCTGAGAATGCAGGATATGTC | 412
29 | GGACACAGGCTTCCGCGTTACCGACACGGCGTGGGG | 1300
30 | ATCAGAGCGGAAATCTCAGTCTTGTGAGGGGACCTG | 2170
31 | AGTACAAAGGGGAAATGTCTCTTGGTAGTTGATAAG | 414
32 | GTCACCATTTCCGGGCCTCCACGGTGTCCCCACCCC | 13600
33 | GACGGGATGTAGGTTTTCAGCCGTGGACACAGGAGA | 936
34 | CCTGTCTGCTTCCGCCCGGCTTCGGCCCTCAGTCAA | 7020
35 | GCACCACCGGAAGTAGGGCTCAACCTCCGCTCATTT | 24400
36 | AAGACAGTCGAGGTGGGCGGGGACAGGAAGTAAGAC | 2340
37 | AGGAAACCCCAAGTTATTCCCTGCAAAGGTCTTGAT | 429
38 | CCGAGGTTGCAAGAAACACCCACCATTTCCGGGTCT | 2110
39 | CTAGCTGTGGACAGGAAACGAGTGGATTTTGTGATC | 3740
40 | TCACCTTCTGCCAAAACTGTTAAGTTTCCTGAGGCC | 428
41 | GTCCCCCTTCCGGCTGCAGGTTGGGGTTTGGAACCT | 8100
42 | GCCCCCAACTCCCAGACACAGCCCCTTCCTCCTCCC | 410
43 | AGCACCCCCTTGAGGTGTCTGGAGGAAGCGGCGCGG | 370
44 | TGCTTAGAACACGGAAACACTGAGCTTTTACTTTGA | 490
45 | ACGGAGCTGTAGTTTAACGTTTCCGGTTAGTGGCTA | 9670
46 | ACTGCCATCCGCCTCAAACGCCAGCCGTAGGCTCTC | 942
47 | TTTTTGGGGTTTAGCCCTCAGAGCTTCCTGCCAGAG | 702
48 | CGGGTTAAACAGCAGCCGCGCCCACACTTCCGGGGT | 2120
49 | AGTGCTGTAATGAGTCATTGTTTATAGGAAGCACCC | 384
50 | GTGCAGGGCCCGGAAGCTCAGTGTGATTAAAGACAT | 1800
51 | CTGTGCTGTCATGTGACGGAGGCCGGAAGGCAGGTC | 548
52 | GTGGGACCTGCTTCCTTAGCCCAAAAGATGCAGAGC | 821
53 | AAACCAACCCCAGGGAGATATAATATCTCTTCCTGT | 522
54 | ATGAGCTATTTCCTGCCTTGTTGTCAGAGCCAGACT | 23500

Row | Sequence | ETS1 binding intensity
55 | CCCATCCTGAGAAGGGACTGAGGCGGCGGCGCAGAA | 1070
56 | CACGTCGCGAGCGCACAGGGGGAAGTTCTCCCGCCA | 399
57 | CCGGGCTGCGGAAGGCGGGAACTCTGCTGTTCGCGG | 404 ± 58
58 | GGGAGCGGCGCGGCGAGAGAGAGGCGGATGAAGGGG | 456
59 | GCCCGGAAGCGCGACGCTGGAGCGGCGGGGTCACCA | 3080
60 | GCGCACCCGCTTCGGCCTCCACAGGAAGTGCCCGGC | 1210
61 | CCGGTTCCCAGAGAGCAGGGGGCTTCCGGCGGGGTA | 2590
62 | TCCAACACAACCCCAGCCCCCGTGCCGGAAGCTGTT | 494
63 | GTTTTCAGGTTGGGGTGCGTGTAGGATGTGCTCTGG | 487
64 | GCGCCCGCCGCCAGGAAGGACCCCGAAGACGCCGCT | 479
65 | CCAGCGGAAAGCCGGTCAGGGGGAACAGCGGCGGGG | 513
66 | CAGAAACATCCCTCCTGCCGCCGCTTTGGGGTACCA | 554
67 | TGATGCACTTCCTGAGGGCCCGCGTGTGATAAACAC | 8580
68 | CGATTCCGGATTGGTCCAGTTCCAGCGCCGAAGCCC | 711
69 | CCCACTTCCTGTCTGCTTCCCTCCTCCGCTCAGACC | 28400
70 | ACCAACCGGAAGTGATCGTGTCGTGGCCGAAGGAGG | 32300
71 | CACCTCAGCTTCCTGAGTAGCTGGGACCCCAGGCGT | 3590
72 | GACACAAGACAGTTTCCGTCAGTGGATAAGCCCTAA | 2290
73 | CTCATAACCTCTAACTCAACCTCTAACATTTCCTGT | 1190
74 | GGCGGGTACTACGGCCCGCCCCACTTCCGGTTGTTG | 14400
75 | GAGGCCCAGGATGTGGCTGGAGGCCTGAGGTGGGAC | 880
76 | AGACGGGACCGGAAGCCGGGCCGTAGGCGGCCGGGC | 12100
77 | AGAAAACTACATTCAATTCTCTTTACACAGGATGTT | 661
78 | ACAGATCCAAGGAAGCATATCCAGCAAGCAACTGTT | 509
79 | TGCTTAGCAGGAAGTTAGTCTGCCTGAGGTAGCTCC | 2790
80 | ATAACCCCAACTACGGCCAACATCCGAGTGCACTGA | 520
